The source of these data is PMC4336329 (PLoS ONE, 2015).

The whole screen tested about 310,000 compounds, of which about 2,200 (0.71%) showed an effect of 50% or more. Effects have a minus sign here. The list shows a part of the results.

The target of the assay is human ether-à-go-go-related gene (hERG) potassium channel (human, UniProt Q12809). As to the kind of experiment: primary screen, population patch clamp on CHO cells stably expressing hERG.
human ether-à-go-go-related gene (hERG) potassium channel, sequence (Q12809 whole entry, looked up): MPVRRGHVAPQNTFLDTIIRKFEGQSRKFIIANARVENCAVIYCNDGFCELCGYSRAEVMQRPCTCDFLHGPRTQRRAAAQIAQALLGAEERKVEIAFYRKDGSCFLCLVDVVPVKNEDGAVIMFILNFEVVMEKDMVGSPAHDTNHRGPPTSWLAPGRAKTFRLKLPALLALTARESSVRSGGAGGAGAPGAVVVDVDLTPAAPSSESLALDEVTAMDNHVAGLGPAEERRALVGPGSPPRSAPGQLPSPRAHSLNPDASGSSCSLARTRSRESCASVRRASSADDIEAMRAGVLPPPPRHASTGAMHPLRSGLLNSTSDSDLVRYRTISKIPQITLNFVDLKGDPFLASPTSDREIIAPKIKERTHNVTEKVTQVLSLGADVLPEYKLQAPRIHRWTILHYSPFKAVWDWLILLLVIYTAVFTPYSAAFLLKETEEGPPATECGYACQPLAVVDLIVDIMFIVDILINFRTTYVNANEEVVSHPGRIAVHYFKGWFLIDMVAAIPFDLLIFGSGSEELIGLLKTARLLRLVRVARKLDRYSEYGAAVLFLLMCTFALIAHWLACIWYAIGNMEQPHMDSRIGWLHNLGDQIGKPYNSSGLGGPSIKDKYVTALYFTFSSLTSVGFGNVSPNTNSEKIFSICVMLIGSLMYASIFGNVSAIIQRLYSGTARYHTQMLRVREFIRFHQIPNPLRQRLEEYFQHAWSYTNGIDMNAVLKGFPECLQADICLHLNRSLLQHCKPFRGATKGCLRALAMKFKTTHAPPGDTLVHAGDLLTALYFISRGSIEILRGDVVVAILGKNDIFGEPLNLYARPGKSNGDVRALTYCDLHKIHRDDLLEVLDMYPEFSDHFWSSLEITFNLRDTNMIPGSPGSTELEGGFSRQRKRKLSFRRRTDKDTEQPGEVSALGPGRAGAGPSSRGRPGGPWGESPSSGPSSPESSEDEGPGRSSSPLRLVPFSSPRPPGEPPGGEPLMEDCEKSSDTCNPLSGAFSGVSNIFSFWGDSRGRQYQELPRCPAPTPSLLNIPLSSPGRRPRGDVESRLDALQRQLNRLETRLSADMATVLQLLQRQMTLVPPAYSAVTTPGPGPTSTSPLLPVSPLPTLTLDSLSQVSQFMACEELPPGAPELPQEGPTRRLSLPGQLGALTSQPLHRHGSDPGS
As to `Cc1cccc(C)c1NC(=O)Cn1cnc2c(=O)n(C)c(=O)n(C)c21`, the “hERG current change (%, negative = inhibition) at 1uM” value is 7.67%.

Consider `CCN1CCCC(OC(=O)c2cc(-c3ccc(C)cc3)nc3ccccc23)C1.Cl` (centres unmarked), for which the “hERG current change (%, negative = inhibition) at 1uM” value was 10.3%.

As to `CCN(c1ccccc1)S(=O)(=O)c1ccc(OC)c(NC(=O)Cc2ccccc2OC)c1`, the “hERG current change (%, negative = inhibition) at 1uM” value was found to be 6.49%.

In the case of `COc1ccc(S(=O)(=O)N2CCN(CC(=O)NCC3(N4CCOCC4)CCCCC3)CC2)cc1`, the “hERG current change (%, negative = inhibition) at 1uM” value is -0.52%.

With `COc1ccc(OC)c2[nH]c(=O)c(CCNC(=O)C3CCCCC3)cc12`, the “hERG current change (%, negative = inhibition) at 1uM” value was -16%.

Turning to `Cc1ccc(S(=O)(=O)N2CCN(C(=O)c3c(C)nn(-c4ccccc4)c3Cl)CC2)cc1`, the “hERG current change (%, negative = inhibition) at 1uM” value was -14.3%.

With `CCC(C)[C@H](NC(=O)Nc1ccc2c(c1)OCCO2)C(=O)O` (some centres unmarked), the “hERG current change (%, negative = inhibition) at 1uM” value worked out at 4.7%.

For `NC(=S)N/N=C/c1ccc(-c2cccc([N+](=O)[O-])c2)o1`, the “hERG current change (%, negative = inhibition) at 1uM” value was -7.29%.

As to `COc1ccc(S(=O)(=O)NN(C)c2ncc(C(F)(F)F)cc2Cl)cc1`, the “hERG current change (%, negative = inhibition) at 1uM” value came out at 8.45%.

In the case of `COC1c2ccccc2C(=O)N1CCc1ccc(Cl)cc1` (centres unmarked), the “hERG current change (%, negative = inhibition) at 1uM” value was 13.5%.

Consider `CCOC(=O)N1CCN(C(=O)CN2C(=O)COc3ccc(C(C)(C)C)cc32)CC1`, for which the “hERG current change (%, negative = inhibition) at 1uM” value turned out to be 0.234%.

Regarding `O=C(Cn1nnc(-c2ccccc2)n1)N/N=C/c1cccc([N+](=O)[O-])c1O`, the “hERG current change (%, negative = inhibition) at 1uM” value stood at 17.7%.

`O=C(Cc1cccs1)NCCS(=O)(=O)N1CCN(c2ccccc2F)CC1`: the “hERG current change (%, negative = inhibition) at 1uM” value is reported as -1.63%.

Take `c1ccc(Nc2nc(N3CCOCC3)nc(N3CCOCC3)n2)cc1`: the “hERG current change (%, negative = inhibition) at 1uM” value is 9.49%.

Turning to `CCn1cc(C=C2C(=O)N(C)C(=O)N(C)C2=O)c2ccccc21`, the “hERG current change (%, negative = inhibition) at 1uM” value came to 8.37%.

On to `CCCc1nnc(NC(=O)CN2CCN(C)CC2)s1.Cl`, for which the “hERG current change (%, negative = inhibition) at 1uM” value is listed as 4.48%.

Turning to `CC1CN(C(=O)Cn2cnc3c2c(=O)n(C)c(=O)n3C)CC(C)O1` (centres unmarked), the “hERG current change (%, negative = inhibition) at 1uM” value stood at 12%.

With `Cn1cnc([N+](=O)[O-])c1Sc1nnc(-c2cccnc2)n1C`, the “hERG current change (%, negative = inhibition) at 1uM” value is 17.2%.

On to `O=C(Oc1ccccc1OC(=O)N1CCOCC1)N1CCOCC1`, for which the “hERG current change (%, negative = inhibition) at 1uM” value stood at 15.9%.

As to `Cc1ccc(S(=O)(=O)N2CCCCC2)cc1NC(=O)C1=NN(c2ccccc2)C(=O)CC1`, the “hERG current change (%, negative = inhibition) at 1uM” value turned out to be 3.77%.

Take `CC(C)CNC(=S)NC1CCCC1`: the “hERG current change (%, negative = inhibition) at 1uM” value is given as 0.0993%.

As to `C[C@H](NC(=O)[C@@H]1Cc2ccccc2CN1C(=O)OC(C)(C)C)C(=O)NC1CCCC1`, the “hERG current change (%, negative = inhibition) at 1uM” value turned out to be 10.9%.

Regarding `COc1ccc(CCN2CC34C=CC(O3)C(C(=O)NCc3ccccc3)C4C2=O)cc1OC` (centres unmarked), the “hERG current change (%, negative = inhibition) at 1uM” value turned out to be 16.5%.

Regarding `CCN(Cc1ccncc1)C(=O)c1cc(COc2ccc(F)cc2F)on1`, the “hERG current change (%, negative = inhibition) at 1uM” value came out at 1.82%.

Turning to `O=C1c2ccccc2NC(c2cccc(Cl)c2)N1N=C1CCCCCC1` (centres unmarked), the “hERG current change (%, negative = inhibition) at 1uM” value is listed as 15.1%.

Regarding `O=C(CN1CCN(c2ncccn2)CC1)NCc1ccccc1`, the “hERG current change (%, negative = inhibition) at 1uM” value turned out to be 13.5%.

In the case of `CC(=O)N1CCN(C(=O)c2cccc(S(=O)(=O)N3CCN(c4ccc(F)cc4)CC3)c2)CC1`, the “hERG current change (%, negative = inhibition) at 1uM” value was 8.35%.

For the compound `COc1ccc(/C=C/S(=O)(=O)NCc2ccccc2)cc1OC`, the “hERG current change (%, negative = inhibition) at 1uM” value worked out at 8.59%.

As to `CCN(CC)C(=O)Cn1c(=O)n(C)c2ccccc21`, the “hERG current change (%, negative = inhibition) at 1uM” value was determined as 6.43%.

Take `Cc1ccc(NC(=O)CS(=O)(=O)c2c[nH]c3ccccc23)c(C)c1`: the “hERG current change (%, negative = inhibition) at 1uM” value was found to be 7.45%.

Turning to `COc1ccccc1C(=O)NCc1ccccn1`, the “hERG current change (%, negative = inhibition) at 1uM” value is recorded as 16.5%.

For the compound `O=C(O)c1ccc(NC(=O)C2C3CCC(C3)C2C(=O)O)cc1` (centres unmarked), the “hERG current change (%, negative = inhibition) at 1uM” value is recorded as 12.5%.

As to `CC1=C(C(=O)OCc2ccccc2)C(c2ccc([N+](=O)[O-])cc2)NC(=O)N1CCCCCC(=O)O` (centres unmarked), the “hERG current change (%, negative = inhibition) at 1uM” value is given as 4.06%.

In the case of `CCN(CC)S(=O)(=O)c1ccc(NC(=O)CCNC(=O)c2ccco2)cc1`, the “hERG current change (%, negative = inhibition) at 1uM” value was 17%.

On to `CC(C)(C)C#CCn1c(/C=[N+](\[O-])C2CCCCC2)nc2ccccc21`, for which the “hERG current change (%, negative = inhibition) at 1uM” value is recorded as -2.66%.

Turning to `Cc1cc(C)cc(N(CCC#N)C(=O)COC(=O)CN2C(=O)NC(C)(C)C2=O)c1`, the “hERG current change (%, negative = inhibition) at 1uM” value amounted to 13.3%.

As for `COCCn1c(-c2ccc(Cl)cc2)nc2oc3cc(OC)ccc3c(=O)c2c1=O`, the “hERG current change (%, negative = inhibition) at 1uM” value was 5.36%.

`COc1ccc(Cl)cc1NC(=O)CCN1CCOCC1`: the “hERG current change (%, negative = inhibition) at 1uM” value is 10.8%.

With `OC(CN1CCN(c2cccc(C(F)(F)F)c2)CC1)c1c[nH]c2ccccc12` (centres unmarked), the “hERG current change (%, negative = inhibition) at 1uM” value is reported as 11.7%.

Consider `Cc1cc(C)c(C)c(S(=O)(=O)N2CCC(C(=O)Nc3ccc(S(=O)(=O)N4CCOCC4)cc3)CC2)c1C`, for which the “hERG current change (%, negative = inhibition) at 1uM” value was found to be 14.5%.

Take `COc1ccc(NC(=O)CS(=O)CC(=O)Nc2cc(Cl)ccc2OC)cc1` (centres unmarked): the “hERG current change (%, negative = inhibition) at 1uM” value was found to be 2.24%.

Regarding `COc1ccc(S(=O)(=O)N2CCOCC2)cc1Cl`, the “hERG current change (%, negative = inhibition) at 1uM” value came out at 1.7%.

Turning to `O=C1CCCc2cc(S(=O)(=O)N3CCC(C(=O)NCc4ccccc4)CC3)ccc2N1`, the “hERG current change (%, negative = inhibition) at 1uM” value stood at 12.5%.

On to `COc1cccc(N=Nc2c(C)[nH]n(-c3ccccc3)c2=O)c1`, for which the “hERG current change (%, negative = inhibition) at 1uM” value is 9.16%.
